The list shows a part of the results. Cleavage of a single-stranded DNA pool by Rep nickase domains was read by sequencing for 1 h at 37 °C with 3 µM enzyme; only the middle of the 90-letter strands is printed. Uncut reads are compared with the no-enzyme pool on a log2 scale; uncut sequences lie near 0, cut ones below; no hit call is given. Shares of all reads are compared, so uncut sequences can rise above 0 when many others are cut.
Columns and labels:
Experiment in all cases: uncleaved DNA left, log2 of reads against the no-enzyme library (log2 ratio); higher = less cleavage (more negative = more Rep cleavage of the k-mer); sequences stand for … in CTCGTCCG…ACCGGAGA
[1] = system: T1, Rep nickase domain of Muscovy duck circovirus
T1 sequence (residues 1-111 of Rep, tag left off): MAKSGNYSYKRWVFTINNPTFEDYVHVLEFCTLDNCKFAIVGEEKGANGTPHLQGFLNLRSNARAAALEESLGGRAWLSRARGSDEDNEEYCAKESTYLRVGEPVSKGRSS
Method: (§1)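 A pool of 90-nt single-stranded DNAs with seven random bases just before the constant AC of the nick site (name = the seven bases) was cut by 3 µM recombinant His6-SUMO-tagged Rep nickase domain (300 nM DNA, 50 mM HEPES pH 8.0, 50 mM NaCl, 1 mM MnCl2, 1 h, 37 °C, three replicates). Uncut DNA was amplified and sequenced.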

[2] = system: T2, Rep nickase domain of banana bunchy top virus
T2 sequence (residues 1-94 of Rep, tag left off): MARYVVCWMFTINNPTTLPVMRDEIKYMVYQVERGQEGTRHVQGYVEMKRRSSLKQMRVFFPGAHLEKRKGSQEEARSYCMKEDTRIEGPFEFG
Method: as §1

[3] = system: T3, Rep nickase domain of cabbage leaf curl virus
T3 sequence (residues 1-116 of Rep, tag left off): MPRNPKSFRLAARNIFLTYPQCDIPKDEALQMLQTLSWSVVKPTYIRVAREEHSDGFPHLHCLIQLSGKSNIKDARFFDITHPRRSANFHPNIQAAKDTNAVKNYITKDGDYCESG
Method: as §1

[4] = system: T4, Rep nickase domain of chickpea chlorotic dwarf virus
T4 sequence (residues 1-124 of Rep, tag left off): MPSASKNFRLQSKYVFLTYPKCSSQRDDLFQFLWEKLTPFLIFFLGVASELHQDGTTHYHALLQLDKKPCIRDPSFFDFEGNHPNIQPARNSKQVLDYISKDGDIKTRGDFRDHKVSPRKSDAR
Method: as §1

[5] = system: T5, Rep nickase domain of faba bean necrotic yellows virus
T5 sequence (residues 1-98 of Rep, tag left off): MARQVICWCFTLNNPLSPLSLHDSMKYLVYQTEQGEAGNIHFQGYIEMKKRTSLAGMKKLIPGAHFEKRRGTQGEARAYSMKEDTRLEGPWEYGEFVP
Method: as §1

[6] = system: T6, Rep nickase domain of maize striate mosaic virus
T6 sequence (residues 1-117 of Rep, tag left off): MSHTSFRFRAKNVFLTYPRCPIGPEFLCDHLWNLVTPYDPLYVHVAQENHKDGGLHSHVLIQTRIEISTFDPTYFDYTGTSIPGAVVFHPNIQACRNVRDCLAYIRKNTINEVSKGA
Method: as §1

[7] = system: T7, Rep nickase domain of porcine circovirus 2
T7 sequence (residues 2-116 of Rep, tag left off): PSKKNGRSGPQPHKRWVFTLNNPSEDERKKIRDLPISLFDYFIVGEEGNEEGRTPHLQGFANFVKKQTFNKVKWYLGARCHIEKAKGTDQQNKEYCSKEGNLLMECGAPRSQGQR
Method: as §1

[8] = system: T8, Rep nickase domain of tomato yellow leaf curl virus
T8 sequence (residues 1-136 of Rep, tag left off): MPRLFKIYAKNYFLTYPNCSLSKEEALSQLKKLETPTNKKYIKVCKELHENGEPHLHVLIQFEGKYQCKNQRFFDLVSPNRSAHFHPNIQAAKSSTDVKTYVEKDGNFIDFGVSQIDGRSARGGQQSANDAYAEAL
Method: as §1

[9] = system: T9, Rep nickase domain of wheat dwarf virus
T9 sequence (residues 1-137 of Rep, tag left off): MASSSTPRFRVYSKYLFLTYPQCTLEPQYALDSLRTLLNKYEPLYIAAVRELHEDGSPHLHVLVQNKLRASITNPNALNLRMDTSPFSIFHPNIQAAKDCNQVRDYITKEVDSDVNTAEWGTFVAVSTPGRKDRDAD
Method: as §1

Sequence | uncleaved DNA left (log2) [1] | uncleaved DNA left (log2) [2] | uncleaved DNA left (log2) [3] | uncleaved DNA left (log2) [4] | uncleaved DNA left (log2) [5] | uncleaved DNA left (log2) [6] | uncleaved DNA left (log2) [7] | uncleaved DNA left (log2) [8] | uncleaved DNA left (log2) [9]
GCCAATG | 0.122 | -0.00968 | -0.227 | 0.104 | 0.148 | -0.461 | 0.275 | 0.0253 | 0.0545
TTTATCG | 0.00306 | 0.00378 | -0.835 | -0.545 | -0.0168 | -1.11 | 0.148 | -0.0124 | -0.0308
GGTTAAC | 0.0583 | -0.00377 | 0.392 | 0.833 | -0.0442 | 1.78 | 0.182 | 0.057 | 0.0896
CTCTACT | -3.15 | -0.666 | -0.735 | -2.74 | -0.0384 | -0.676 | -3.7 | -0.111 | -0.362
CGACCTA | -0.0961 | 0.0691 | -0.0823 | 0.146 | -0.0284 | 0.48 | -0.231 | -0.149 | -0.0669
AAACACG | -0.0533 | -0.0347 | -0.938 | -0.189 | -0.0451 | -0.971 | 0.106 | -0.0308 | -0.123
TGTCCTC | 0.0134 | -0.0814 | 0.302 | 0.468 | -0.0226 | 1.13 | 0.0377 | 0.0886 | 0.0784
CGCCTAG | -0.141 | -0.0121 | -0.642 | -0.405 | -0.151 | -0.836 | 0.0569 | 0.139 | -0.016
TGGGAGG | -0.0181 | -0.0591 | 0.498 | 1.24 | 0.083 | 1.59 | 0.148 | -0.0959 | 0.0499
GGAACTC | 0.00722 | 0.0799 | 0.743 | 1.77 | -0.0156 | 2.07 | 0.184 | 0.0944 | 0.162
TTGGATC | -0.0382 | -0.0704 | 0.132 | 0.634 | -0.0411 | 0.85 | -0.0198 | -0.118 | -0.153
AGCATTC | 0.000986 | 0.0469 | -0.165 | -0.125 | -0.0479 | -0.833 | -0.235 | -0.0147 | -0.0383
TAGAAGC | -0.0775 | -0.000836 | -0.3 | -0.545 | 0.0358 | -1.16 | 0.0298 | 0.123 | -0.0769
CGGATCT | 0.0335 | 0.114 | 0.341 | 0.266 | 0.089 | 1.1 | 0.0429 | 0.129 | 0.094
TTTTGAG | -0.0528 | -0.106 | -0.802 | -0.0819 | 0.0182 | -1.09 | 0.157 | 0.0155 | -0.0676
ACCAGCG | -0.0319 | 0.091 | 0.343 | 1.78 | 0.00755 | 1.7 | 0.213 | 0.106 | -0.0112
AGTTACT | -3.5 | -2.56 | -0.691 | -2.53 | -0.949 | 0.497 | -4.3 | -0.094 | -0.345
TACCGAG | 0.21 | 0.0646 | 0.576 | 1.17 | 0.208 | 0.405 | 0.162 | 0.104 | 0.23
CCAATGT | 0.226 | -0.0163 | -0.0804 | -0.473 | 0.0662 | -0.847 | 0.117 | 0.0694 | -0.15
TTGGTTG | -0.0442 | -0.0178 | -0.373 | -0.484 | -0.163 | -0.803 | -0.021 | -0.124 | -0.175
GGCATTC | 0.0516 | 0.113 | 0.766 | 1.86 | 0.00422 | 2.18 | 0.199 | 0.0436 | 0.148
TGATTCA | -0.0911 | 0.147 | 0.319 | -0.443 | 0.0717 | 0.084 | -0.0604 | 0.221 | 0.212
GTTGTGA | 0.062 | 0.00579 | -0.00511 | 0.485 | -0.0161 | 0.216 | 0.0675 | -0.0122 | 0.0141
GGCATAG | 0.143 | 0.114 | 0.0549 | 0.506 | 0.0705 | 0.0587 | 0.171 | 0.115 | 0.136
TCCAATA | -0.0534 | -0.0662 | -0.126 | -1.39 | -0.0711 | -0.672 | -0.0972 | -0.077 | 0.015
GACGTGA | -0.0471 | -0.263 | 0.102 | 0.396 | -0.185 | 0.378 | 0.0242 | -0.124 | -0.0977
CCCCGAA | 0.108 | -0.021 | -0.00236 | 0.0107 | -0.0745 | -0.517 | -0.16 | -0.108 | -0.123
GCATAGC | 0.0958 | -0.0506 | -0.402 | -0.249 | 0.11 | -0.92 | 0.167 | 0.186 | 0.0286
TAGCAGC | 0.0597 | -0.0357 | -0.382 | -0.514 | -0.0811 | -1.04 | 0.0217 | -0.0847 | -0.11
ATGGCGC | -0.0273 | -0.152 | -0.835 | 0.0805 | 0.0323 | -0.774 | 0.0306 | -0.0644 | -0.269
